Test results: the RNAGym collection of RNA variant scans (doi:10.7554/elife.90254)
The source gives no read counts; variants with many changes may rest on few reads.

B1: LINE1-full (parent)
chain: UACGUAGGUGGUUUUCCCCUGAUAGUGCUAAGGGGGCCUGGAAGUUUGGACUGGGCAGAGCUCAACACAGCGUGGCAAAGUGGCUGUGGCUAGACUGCCUCUCUGGAUUCCUCGUCACUCAGCAGGGCAUCUCUGAGAGAAAUGCC

Variants of: B1
Experiment: self-cleavage, relative activity (ratio to wild type); higher = more cleavage; in vitro, sequencing; the parent is a self-cleaving ribozyme

Row | Variant | self-cleavage
1 | C68U A69U U130C | 0.06
2 | C68U A77G A140G | 0.19
3 | C68U A77U U85C U130A | 0.05
4 | C68U A78G A129G A136G | 0.13
5 | C68U A94G C110U | 0.03
6 | C68U G97C A138G A141G U143A | 0.07
7 | C68U U85A A129G U130C A136G | 0.02
8 | C68U U85G U143G | 0.02
9 | C68U U87C A124U A138G | 0.01
10 | C68U U102A A140C | 0.16
11 | C68U U115C A129U | 0.38
12 | C68U U119A U130C | 0.16
13 | A69C A78U U132G | 0
14 | A69C A107C C110U A124U | 0.05
15 | A69C U81C A136U | 0
16 | A69C U91C U134A U143C | 0.08
17 | A69G A77G A142G | 1.2
18 | A69G A77G U85A | 0
19 | A69G A77G U130C | 0
20 | A69G A78G A79G A141G | 0
21 | A69G A78U U100G A140G | 0
22 | A69G A79G U143A | 1.12
23 | A69G A92G A138G | 0
24 | A69G A92G C103A | 0.13

Row | Variant | self-cleavage
25 | A69G A92U U134A A142G | 0.14
26 | A69G A121U A124G A136G | 1.62
27 | A69G A124G A140G | 0
28 | A69G C84A U130C | 0
29 | A69G C84G U108C A124U A140G | 0
30 | A69G C84U A136G | 0.18
31 | A69G C110U U130A | 0.66
32 | A69G C113A A141G | 0.37
33 | A69G G74A C120A A121G | 0.47
34 | A69G G75U C95A | 0.04
35 | A69G G83A U132C A138G | 0.19
36 | A69G G83U U132C | 0.18
37 | A69G G114A A142G | 0.3
38 | A69G U73A A121G | 0.19
39 | A69G U73C U96A | 0.04
40 | A69G U73G U112A G137A | 0.92
41 | A69G U81A A142G C146G | 1.44
42 | A69G U81A U91C | 0.13
43 | A69G U81A U102C | 0.74
44 | A69G U81C U119C | 0
45 | A69G U85A A92G | 0
46 | A69G U85A U112A G122U U130C A138G | 0
47 | A69G U85C G144A | 0.42
48 | A69G U85G U100C | 0

Row | Variant | self-cleavage
49 | A69G U87A A141G U143C | 0.02
50 | A69G U87A U91A | 0.18
51 | A69G U87C G105A | 0.11
52 | A69G U87G A117G U119A | 0
53 | A69G U100C U134C A136U G137A | 0
54 | A69G U104A A140G | 0.16
55 | A69G U104C C128U U132A | 0.77
56 | A69G U104C U112A | 0.42
57 | A69G U112A U134G | 0.51
58 | A69G U115C A138G | 0
59 | A69G U130A A138G | 0.56
60 | A69G U130A A140U | 0.12
61 | A69G U130C A142G | 1.18
62 | A69G U132C A142G | 0.49
63 | A69U A77G C84A A107G A136U A140G | 0.15
64 | A69U A77G U112C | 0.04
65 | A69U A79G U112A A138G | 0.06
66 | A69U A79U A107G | 0.1
67 | A69U A79U G89C U134G C146A | 0.02
68 | A69U A79U G126A G139U | 0.1
69 | A69U A79U U100C | 0.19
70 | A69U A92C A136G | 0
71 | A69U A117U U130C | 0
72 | A69U A129G A136G | 0.09

Row | Variant | self-cleavage
73 | A69U A136U A138G | 0.1
74 | A69U A138U A142G | 0.08
75 | A69U C116U C145U | 0.05
76 | A69U G106A C123A A124G | 0.05
77 | A69U G127U A138G | 0.05
78 | A69U U73A A78G | 0.05
79 | A69U U73C U119C | 0.22
80 | A69U U96A U102C | 0.06
81 | A69U U96C U143C | 0.06
82 | A69U U102A A124G | 0.16
83 | A69U U102G U104G | 0
84 | A69U U108A U115C | 0.07
85 | A69U U115C A136G | 0.04
86 | A69U U115C U134C | 0
87 | A69U U115C U143C | 0.11
88 | A69U U119C A121U | 0
89 | G70A A78G C90U | 0.02
90 | G70A U96C A124G | 0.03
91 | G70C U104C U134A | 0.11
92 | C71A A78U A117G | 0.2
93 | C71A U73C A140G | 0.08
94 | C71G C101A A124G | 0.82
95 | C71G G80A U134G | 0.24
96 | C71G U73A A141G | 0.07

Row | Variant | self-cleavage
97 | C71U A77C A140G | 0.33
98 | C71U A77G U134C | 1.55
99 | C71U A77U A94U | 0.16
100 | C71U A77U A141G | 0.93
101 | C71U G86A U108C A129U | 0.02
102 | C71U U73C U81C A117U | 1.01
103 | C71U U91C A129G A141U A142G | 0.59
104 | C71U U96A A107U | 0.03
105 | C71U U100C U108C A136G | 1.57
106 | C71U U102C A107U | 1.17
107 | C71U U102C U119C A129U | 1.72
108 | G72A A77G A140G | 1.69
109 | G72A A78G U104C U112C U132C | 1.56
110 | G72A U73C A78G U87A A142G U143C | 0.1
111 | G72A U85C A92G G114A | 0.07
112 | G72A U85C U91A A136G | 0.21
113 | G72A U87A U104A | 0.08
114 | G72A U102A U108A A136G | 1.09
115 | G72C U100C A138G A140G | 1.8
116 | G72U A107G A140G | 0.3
117 | G72U U87A A129G U143C | 0.11
118 | G72U U91C U143A | 0.53
119 | G72U U96C G105A U134C | 0.05
120 | U73A A77G C101U A141C | 2.85

Row | Variant | self-cleavage
121 | U73A A78G C99A U100A G125A U130C | 0.29
122 | U73A A78G U119C A121U | 0.27
123 | U73A A79G A142G | 0.87
124 | U73A A79G U85G | 0.72
125 | U73A A92G U109C | 0.1
126 | U73A A94G A140G | 0.24
127 | U73A A117G A129G | 1.38
128 | U73A A117G U132C | 0.88
129 | U73A A121U G137U | 0.63
130 | U73A A124G U130C A140G A141G | 0.68
131 | U73A A124G U132C | 0.59
132 | U73A A136U U143C | 1.86
133 | U73A A142U U143G | 1.91
134 | U73A C76U U112C A141G | 2.57
135 | U73A C90G U96A U134C A140U | 0.02
136 | U73A C113U A124U A129G | 0.77
137 | U73A C120U C123U | 1.48
138 | U73A G80A A129G A140G | 2.39
139 | U73A G80A U130C C133A | 1.87
140 | U73A G97A A141G | 0.05
141 | U73A G135A A142G | 1.79
142 | U73A U81A A129G U134A | 1.77
143 | U73A U81A A138G | 1.87
144 | U73A U81C U96C | 0.06

Row | Variant | self-cleavage
145 | U73A U85C G88U U119C | 0.04
146 | U73A U87A A121G | 0.11
147 | U73A U91A U96A A107U A117G | 0.08
148 | U73A U96C A121G A136G | 0
149 | U73A U100A U134A | 1.13
150 | U73A U100C A121G | 2.67
151 | U73A U102C U112A A136U | 2.11
152 | U73A U108C A129C | 1.6
153 | U73A U108C A138U | 2.51
154 | U73A U108C U115G A140G | 2.25
155 | U73A U108C U132A | 1.95
156 | U73A U109A A141G A142C | 1.02
157 | U73A U109A U134C | 1.35
158 | U73A U112A C113U | 1.92
159 | U73A U115C U130C A140U | 1.17
160 | U73A U132C U134C U143A | 1.46
161 | U73A U134C A138G | 1.44
162 | U73C A77G U130C | 2.3
163 | U73C A77U A121U | 1.73
164 | U73C A78C U102C | 0.92
165 | U73C A78G A94U U102C A138G | 0.53
166 | U73C A78G U91A G125U | 0.42
167 | U73C A78U A107G | 2.04
